The text below walks through data of paper PMC4336329 (PLoS ONE, 2015).

Each structure is given as a SMILES string. The whole screen tested about 310,000 compounds, of which about 14,000 (4.5%) showed an effect of 50% or more. The effect is printed as a negative number. This is one part of the list.
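Note: peak tail current of the secondary pulse compared with the same well before compound.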

Sequence of human ether-à-go-go-related gene (hERG) potassium channel (Q12809 whole entry, looked up): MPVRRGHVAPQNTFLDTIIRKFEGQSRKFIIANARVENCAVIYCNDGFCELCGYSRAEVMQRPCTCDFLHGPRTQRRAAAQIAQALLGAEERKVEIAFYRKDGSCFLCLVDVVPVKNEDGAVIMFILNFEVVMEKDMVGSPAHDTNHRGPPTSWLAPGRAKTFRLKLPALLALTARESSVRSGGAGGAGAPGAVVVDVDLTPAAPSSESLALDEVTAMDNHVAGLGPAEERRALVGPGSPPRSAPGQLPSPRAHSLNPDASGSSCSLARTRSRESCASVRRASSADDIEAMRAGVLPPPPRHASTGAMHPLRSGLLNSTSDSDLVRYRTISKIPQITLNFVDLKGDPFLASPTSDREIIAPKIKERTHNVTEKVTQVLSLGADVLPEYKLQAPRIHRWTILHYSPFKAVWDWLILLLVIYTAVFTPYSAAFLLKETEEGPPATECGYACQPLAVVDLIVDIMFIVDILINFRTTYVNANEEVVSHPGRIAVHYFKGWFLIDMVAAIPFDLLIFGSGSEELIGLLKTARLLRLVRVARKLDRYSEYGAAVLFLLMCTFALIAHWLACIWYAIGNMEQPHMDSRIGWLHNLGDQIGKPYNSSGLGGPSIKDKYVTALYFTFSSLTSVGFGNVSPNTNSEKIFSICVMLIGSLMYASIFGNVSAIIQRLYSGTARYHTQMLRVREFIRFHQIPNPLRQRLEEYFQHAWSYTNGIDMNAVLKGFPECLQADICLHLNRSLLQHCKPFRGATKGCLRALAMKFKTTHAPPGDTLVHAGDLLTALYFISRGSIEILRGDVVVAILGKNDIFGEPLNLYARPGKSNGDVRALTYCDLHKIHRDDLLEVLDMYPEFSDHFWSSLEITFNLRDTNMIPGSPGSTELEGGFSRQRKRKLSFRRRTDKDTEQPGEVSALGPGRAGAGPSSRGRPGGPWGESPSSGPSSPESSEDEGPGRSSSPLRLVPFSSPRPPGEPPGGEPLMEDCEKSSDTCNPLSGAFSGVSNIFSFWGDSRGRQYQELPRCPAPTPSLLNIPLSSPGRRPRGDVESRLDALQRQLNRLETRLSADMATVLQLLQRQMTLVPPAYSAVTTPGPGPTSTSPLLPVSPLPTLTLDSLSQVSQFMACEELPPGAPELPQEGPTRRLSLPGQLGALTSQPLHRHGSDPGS

This test concerns the target human ether-à-go-go-related gene (hERG) potassium channel (human, UniProt Q12809). In words: primary screen, population patch clamp on CHO cells stably expressing hERG.
`N#C/C(=C\c1ccc([N+](=O)[O-])o1)c1nc2ccccc2[nH]1`: the “hERG current change (%, negative = inhibition) at 10uM” value worked out at 15.6%. As for `COC(=O)[C@@H]1C[C@@H]2CC[C@@H](O)C[C@@H]2N1Cc1ccc(Cl)cc1`, the “hERG current change (%, negative = inhibition) at 10uM” value is listed as 23.7%.

As for `O=C(CC1C(=O)NCCN1Cc1ccc(-c2ccccc2)cc1)NCc1ccncc1` (stereo not shown), the “hERG current change (%, negative = inhibition) at 10uM” value is recorded as -25.3%. Regarding `Cc1ccccc1COCCN1CCN(S(=O)(=O)c2ccccc2)CCC1=O`, the “hERG current change (%, negative = inhibition) at 10uM” value was 3.99%. Turning to `O=C(CCN1C(=O)/C(=C/c2ccccc2F)SC1=S)N[C@@H](CO)Cc1ccccc1`, the “hERG current change (%, negative = inhibition) at 10uM” value is reported as 5.27%.

On to `CCC(C)(C)NC(=O)C(c1cccs1)N(CC1CCCO1)C(=O)Cn1nnc2ccccc21` (stereo not shown), for which the “hERG current change (%, negative = inhibition) at 10uM” value came out at 8.27%. In the case of `Cc1ccc(C(=O)CSc2nnc3n2CCCCC3)s1`, the “hERG current change (%, negative = inhibition) at 10uM” value was -1.92%. The figure for `CC(CC(=O)N(CCC1=CCCCC1)c1c(N)n(Cc2ccccc2)c(=O)[nH]c1=O)c1ccccc1` (stereo not shown) is 17.1%. With `O=C1Nc2ccccc2N(O)N1c1ccc(Cl)c(Cl)c1`, the “hERG current change (%, negative = inhibition) at 10uM” value is given as 30.8%. On to `O=C(NCCN1C(=O)S/C(=C\c2ccccc2F)C1=O)C1CC(=O)N(Cc2ccccc2)C1` (stereo not shown), for which the “hERG current change (%, negative = inhibition) at 10uM” value is given as -23.4%. For `Cc1c(C#N)c(=O)c(-[n+]2ccccc2)c([S-])n1-c1ccc(Cl)cc1`, the “hERG current change (%, negative = inhibition) at 10uM” value is recorded as 9.46%. On to `CC1CCN(C(=O)CNC(=O)Cc2ccccc2)CC1`, for which the “hERG current change (%, negative = inhibition) at 10uM” value is reported as 9.53%.

As to `O=C(C1CCCN(S(=O)(=O)c2cccc3nsnc23)C1)N1CCCCCC1` (stereo not shown), the “hERG current change (%, negative = inhibition) at 10uM” value was -16.8%. With `COCCCNC(=O)CN1C(=O)/C(=C/c2ccccc2C)Sc2ccccc21`, the “hERG current change (%, negative = inhibition) at 10uM” value is 4.48%.

`CCc1nnc(NC(=O)CCC(=O)N2CCN(C3CCCCC3)CC2)s1`: the “hERG current change (%, negative = inhibition) at 10uM” value is recorded as -7.35%. The value for `COc1ccc(OC)c(NC2=C(Cl)C(=O)N(Cc3ccccc3)C2=O)c1` was 5.06%.

For `Cc1csc(C(=O)O)c1NC(=O)c1cccc([N+](=O)[O-])c1`, the “hERG current change (%, negative = inhibition) at 10uM” value is listed as 15.9%. On to `Cc1nc2cc(NC(=O)NCc3ccco3)ccc2n1C`, for which the “hERG current change (%, negative = inhibition) at 10uM” value was 0.499%. `COc1ccc(NC(C)=O)c(C)c1`: the “hERG current change (%, negative = inhibition) at 10uM” value amounted to 18.2%. The figure for `CC(C)Cn1c(N)c(C(=O)COC(=O)C2CCCCC2)c(=O)n(C)c1=O` is -48.7%. The value for `O=C(COc1ccc(-c2ccccc2)cc1)NN=C1CCCC1` was -12%; that for `CCC(=O)N1CCc2cc(S(=O)(=O)NCCC(=O)NCc3ccc(F)cc3)ccc21` was -5.55%; that for `NC(=O)CC(NC(=O)Cc1ccc(Cl)cc1)c1ccc(NC2CCCCCC2)c([N+](=O)[O-])c1` (stereo not shown) was 15.6%. Regarding `COc1ccc(C(=O)N2CCC(C(=O)NCc3ccccn3)CC2)cc1`, the “hERG current change (%, negative = inhibition) at 10uM” value is reported as -16.2%. Regarding `O=C(O)C1CCCN1C(=O)C12CC3CC(CC(C3)C1)C2` (stereo not shown), the “hERG current change (%, negative = inhibition) at 10uM” value came out at 11.4%. Take `COc1ccc(CN(CC(=O)NCCC(C)C)C(=O)CCC(=O)Nc2nccs2)cc1`: the “hERG current change (%, negative = inhibition) at 10uM” value is 4.66%. The figure for `CCOc1ccc2nc(NC(=O)COc3ccc(N(C)S(=O)(=O)c4ccc(C)cc4)cc3)sc2c1` is 20.5%; for `O=C(Nc1cccc2c1CCCC2)C1CCCN(S(=O)(=O)c2cccc3nonc23)C1` (stereo not shown) it is -1.23%; for `O=C(Oc1ccc(Oc2ccccc2)cc1)N1CCC(O)CC1` it is 2.31%.

As for `Cl.FC(F)(F)Oc1ccc(Nc2nc(N3CCOCC3)nc(N3CCOCC3)n2)cc1`, the “hERG current change (%, negative = inhibition) at 10uM” value is -13.7%. The value for `CC(C)C(NC(=O)CCNC(=O)c1ccc(C(C)(C)C)cc1)c1nc2ccccc2[nH]1` (stereo not shown) was 4.54%; that for `Nc1c(Sc2ccccc2)c(=O)[nH]c(=O)n1Cc1ccccc1` was -34.8%; that for `CC1CC(C)CN(C(=O)CCNC(=O)Cn2cnc3ccccc3c2=O)C1` (stereo not shown) was 10.1%. Turning to `COc1ccc2c(Cl)c(-c3nnc(SCC(N)=O)n3C)sc2c1`, the “hERG current change (%, negative = inhibition) at 10uM” value came to 10.3%. Regarding `O=C(NCc1ccco1)c1cccc(S(=O)(=O)N2CCOCC2)c1`, the “hERG current change (%, negative = inhibition) at 10uM” value was -4.97%.

Turning to `O=C(Nc1cnc2ccccn2c1=O)c1ccc(Cl)cc1Cl`, the “hERG current change (%, negative = inhibition) at 10uM” value came to 3.88%. For the compound `CC(C)(C)CC(=O)N[C@@H](Cc1ccccc1)c1nc2ccccc2[nH]1`, the “hERG current change (%, negative = inhibition) at 10uM” value worked out at 8.12%. With `N=C1C(=O)OCC1c1ccccc1NC(=O)CN1CCOCC1` (stereo not shown), the “hERG current change (%, negative = inhibition) at 10uM” value was 13.4%. `Cc1nn(C)c(C)c1S(=O)(=O)N1CCC(C(=O)NCCC2=CCCCC2)CC1`: the “hERG current change (%, negative = inhibition) at 10uM” value is -8.57%. The figure for `CN(C)CCNC(=O)Nc1cccc(Cl)c1Cl` is -4.25%.

For `COc1ccc(Cn2nnc(C(=O)Nc3ccc(F)cc3)c2N)cc1`, the “hERG current change (%, negative = inhibition) at 10uM” value is given as -9.42%. In the case of `COCCn1c(SCC(=O)Nc2cc(C)on2)nc2cc(Cl)ccc2c1=O`, the “hERG current change (%, negative = inhibition) at 10uM” value is reported as -3.47%. Consider `O=C(O)c1cc(-c2ccccc2)n(-c2ccc(F)cc2)n1`, for which the “hERG current change (%, negative = inhibition) at 10uM” value is given as 27.8%. `COc1cc(-c2nc(C(=O)NC3CCCCC3)cc3c2[nH]c2ccccc23)cc(OC)c1OC`: the “hERG current change (%, negative = inhibition) at 10uM” value is given as -8.67%. The value for `COC(=O)c1cc(NC(=O)CN2C(=O)CSC2=O)ccc1Cl` was -9.64%; that for `CCCCC(CC)C(=O)NCC(C)NC(=O)C(CC)CCCC` (stereo not shown) was 0.945%; that for `CC1=Nc2cccc3cccc(c23)N1` was 2.88%. With `Cc1nc2ccc(S(=O)(=O)Nc3cc(-c4nc5cccnc5s4)ccc3C)cc2s1`, the “hERG current change (%, negative = inhibition) at 10uM” value is reported as -15.8%. In the case of `O=C(Cc1cnc2ncnn2c1)N1CCc2c([nH]c3ccccc23)C1c1ccccc1F` (stereo not shown), the “hERG current change (%, negative = inhibition) at 10uM” value is given as -39.8%. Regarding `COc1ccc(-c2cc3c(=O)n(CC(=O)NCCCN4CCC(N5CCCCC5)CC4)ncn3n2)cc1`, the “hERG current change (%, negative = inhibition) at 10uM” value is 21.5%. Take `Cc1ccc2ncnc(Nc3ccc(C)c(C)c3)c2c1`: the “hERG current change (%, negative = inhibition) at 10uM” value is -1.72%.

On to `CCn1cc(C(=O)O)c(=O)c2cc(S(=O)(=O)N(C)C)ccc21`, for which the “hERG current change (%, negative = inhibition) at 10uM” value is reported as -5.47%.

As for `COCC1CCN(Cc2cn[nH]c2-c2ccc(OC)cc2F)C1` (stereo not shown), the “hERG current change (%, negative = inhibition) at 10uM” value is given as -12.5%. For `CN(Cc1cn[nH]c1-c1ccc2c(c1)OCO2)C1CCOCC1`, the “hERG current change (%, negative = inhibition) at 10uM” value is 12.7%.

For the compound `Cc1ccc(C(=O)CCC(=O)Nc2ccc(Cl)c(S(=O)(=O)Nc3cccc(Cl)c3)c2)cc1`, the “hERG current change (%, negative = inhibition) at 10uM” value was -12.1%.
